This note sets out measurements from US10787442B2, “Modulators of indoleamine 2,3-dioxygenase” (GLAXOSMITHKLINE INTELLECTUAL PROPERTY DEVELOPMENT LIMITED, priority 2016, dated 2020).

The assay has as its target indoleamine 2, 3-dioxygenase (IDO1) (Homo sapiens, UniProt P14902). Put plainly: IDO1 PBMC RapidFire MS Assay (kynurenine by mass spectrometry). It is filed as cell-based. The note with it: human PBMC stimulated with IFN-γ and LPS, 2 days; recorded as pIC50; read-out: IDO1 PBMC PXC50 (converted). Here is the method: IDO1 PBMC RapidFire MS Assay
UniProt P14902, sequence (P14902 whole entry): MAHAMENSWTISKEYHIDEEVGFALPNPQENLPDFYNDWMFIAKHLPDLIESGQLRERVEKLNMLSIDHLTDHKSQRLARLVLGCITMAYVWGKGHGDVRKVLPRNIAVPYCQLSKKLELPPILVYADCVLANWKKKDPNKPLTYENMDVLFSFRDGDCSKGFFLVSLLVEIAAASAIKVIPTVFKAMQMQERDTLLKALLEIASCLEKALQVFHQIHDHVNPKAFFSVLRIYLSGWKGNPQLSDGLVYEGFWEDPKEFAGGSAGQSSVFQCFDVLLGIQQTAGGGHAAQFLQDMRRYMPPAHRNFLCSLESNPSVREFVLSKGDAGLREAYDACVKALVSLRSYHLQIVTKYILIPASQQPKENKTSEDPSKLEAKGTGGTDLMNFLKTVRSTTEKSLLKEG
Compounds of the present invention were tested via high-throughput cellular assays utilizing detection of kynurenine via mass spectrometry and cytotoxicity as end-points. […] Compounds with IDO1 inhibitory properties decreased the amount of kynurenine produced by the cells via the tryptophan catabolic pathway. Cellular toxicity due to the effect of compound treatment was measured using CellTiter-Glo® reagent (CTG) (Promega Corporation, Madison, Wis.), which is based on luminescent detection of ATP, an indicator of metabolically active cells.
In preparation for the assays, test compounds were serially diluted 3-fold in DMSO from a typical top concentration of 1 mM or 5 mM and plated at 0.5 μL in 384-well, polystyrene, clear bottom, tissue culture treated plates with lids (Greiner Bio-One, Kremsmünster, Austria) to generate 11-point dose response curves. Low control wells (0% kynurenine or 100% cytotoxicity) contained either 0.5 μL of DMSO in the presence of unstimulated (−IFN-γ/−LPS) PBMCs for the mass spectrometry assay or 0.5 μL of DMSO in the absence of cells for the cytotoxicity assay, and high control wells (100% kynurenine or 0% cytotoxicity) contained 0.5 μL of DMSO in the presence of stimulated (+IFN-γ/+LPS) PBMCs for both the mass spectrometry and cytotoxicity assays.
Frozen stocks of PBMCs were washed and recovered in RPMI 1640 medium (Thermo Fisher Scientific, Inc., Waltham, Mass.) supplemented with 10% v/v heat-inactivated fetal bovine serum (FBS) (Thermo Fisher Scientific, Inc., Waltham, Mass.), and 1× penicillin-streptomycin antibiotic solution (Thermo Fisher Scientific, Inc., Waltham, Mass.). The cells were diluted to 1,000,000 cells/mL in the supplemented RPMI 1640 medium. 50 μL of either the cell suspension, for the mass spectrometry assay, or medium alone, for the cytotoxicity assay, were added to the low control wells, on the previously prepared 384-well compound plates, resulting in 50,000 cells/well or 0 cells/well respectively. IFN-γ and LPS were added to the remaining cell suspension at final concentrations of 100 ng/ml and 50 ng/ml respectively, and 50 μL of the stimulated cells were added to all remaining wells on the 384-well compound plates. The plates, with lids, were then placed in a 37° C., 5% CO2 humidified incubator for 2 days.
Following incubation, the 384-well plates were removed from the incubator and allowed to equilibrate to room temperature for 30 minutes. For the cytotoxicity assay, CellTiter-Glo® was prepared according to the manufacturer's instructions, and 40 μL were added to each plate well. After a twenty minute incubation at room temperature, luminescence was read on an EnVision® Multilabel Reader (PerkinElmer Inc., Waltham, Mass.). For the mass spectrometry assay, 10 μL of supernatant from each well of the compound-treated plates were added to 40 μL of acetonitrile, containing 10 μM of an internal standard for normalization, in 384-well, polypropylene, V-bottom plates (Greiner Bio-One, Kremsmünster, Austria) to extract the organic analytes. Following centrifugation at 2000 rpm for 10 minutes, 10 μL from each well of the acetonitrile extraction plates were added to 90 μL of sterile, distilled H2O in 384-well, polypropylene, V-bottom plates for analysis of kynurenine and the internal standard on the RapidFire 300 (Agilent Technologies, Santa Clara, Calif.) and 4000 QTRAP MS (SCIEX, Framingham, Mass.). MS data were integrated using Agilent Technologies' RapidFire Integrator software, and data were normalized for analysis as a ratio of kynurenine to the internal standard.

For `CO[C@H]1CC[C@H](N(CC(C)C)c2ncc([C@H](C)CC(=O)O)cc2Nc2nc(C(F)(F)F)ns2)CC1` [Example 26, (R)-3-(6-(isobutyl((1r,4R)-4-methoxycyclohexyl)amino)-5-((3-(trifluoromethyl)-1,2,4-thiadiazol-5-yl)amino)pyridin-3-yl)butanoic acid], the IC50 was 3.16 nM.

As to `CO[C@H]1CC[C@H](N(CC(C)C)c2ncc([C@H](C)CC(=O)O)cc2Nc2ccc(Cl)cn2)CC1` [Example 27, (R)-3-(5-((5-chloropyridin-2-yl)amino)-6-(isobutyl((1r,4R)-4-methoxycyclohexyl)amino)pyridin-3-yl)butanoic acid], the IC50 is 7.94 nM.

On to `CC(C)CN(c1ncc([C@H](C)CC(=O)O)cc1Nc1nc(C(F)(F)F)ns1)[C@H]1CC[C@H](O)CC1` [Example 28, (R)-3-(6-(((1r,4R)-4-hydroxycyclohexyl)(isobutyl)amino)-5-((3-(trifluoromethyl)-1,2,4-thiadiazol-5-yl)amino)pyridin-3-yl)butanoic acid], for which the IC50 is 5.01 nM.

`CC(C)CN(c1ncc(-c2ccccc2C(=O)O)cc1Nc1nc(C(F)(F)F)ns1)C1CCOCC1` [Example 29, 2-(6-(isobutyl(tetrahydro-2H-pyran-4-yl)amino)-5-((3-(trifluoromethyl)-1,2,4-thiadiazol-5-yl)amino)pyridin-3-yl)benzoic acid]: the IC50 is 5.01 nM.

For the compound `CC(C)CN(c1ncc([C@H](C)CC(=O)O)cc1Nc1nc(Cl)ns1)C1CCC(F)(F)CC1` [Example 30, (R)-3-(5-((3-chloro-1,2,4-thiadiazol-5-yl)amino)-6-((4,4-difluorocyclohexyl)(isobutyl)amino)pyridin-3-yl)butanoic acid], the IC50 is 3.98 nM.

As for `CC(C)CN(c1ncc(C(C)CC(=O)O)cc1Nc1nc(C(F)(F)F)ns1)C1CCOCC1` (stereo not drawn) [Example 31, 3-{6-[(2-methylpropyl)(oxan-4-yl)amino]-5-{[3-(trifluoromethyl)-1,2,4-thiadiazol-5-yl]amino}pyridin-3-yl}butanoic acid], the IC50 is 2 nM.

In the case of `CC(C)CN(CC(C)C)c1ncc(C(C)CC(=O)O)cc1Nc1nc(Cl)ns1` (stereo not drawn) [Example 32, 3-{6-[bis(2-methylpropyl)amino]-5-[(3-chloro-1,2,4-thiadiazol-5-yl)amino]pyridin-3-yl}butanoic acid], the IC50 was 20 nM.

For the compound `CC(C)CN(c1ncc(C(C)CC(=O)O)cc1Nc1ccc(C#N)cn1)C1CCOCC1` (stereo not drawn) [Example 33, 3-{5-[(5-cyanopyridin-2-yl)amino]-6-[(2-methylpropyl)(oxan-4-yl)amino]pyridin-3-yl}butanoic acid], the IC50 is 10 nM.

`CC(C)CN(c1ncc(C(C)CC(=O)O)cc1Nc1nc(Cl)ns1)C1CCOCC1` (stereo not drawn) [Example 34, 3-{5-[(3-chloro-1,2,4-thiadiazol-5-yl)amino]-6-[(2-methylpropyl)(oxan-4-yl)amino]pyridin-3-yl}butanoic acid]: the IC50 is 12.6 nM.

Consider `CC(C)CN(c1ncc(C(C)CC(=O)O)cc1Nc1ccc(Cl)cn1)C1CCOCC1` (stereo not drawn) [Example 35, 3-{5-[(5-chloropyridin-2-yl)amino]-6-[(2-methylpropyl)(oxan-4-yl)amino]pyridin-3-yl}butanoic acid], for which the IC50 was 3.16 nM.

For the compound `CC(C)CN(c1ncc(C(C)CC(=O)O)cc1Nc1nnc(C2CC2)s1)C1CCOCC1` (stereo not drawn) [Example 36, 3-{5-[(5-cyclopropyl-1,3,4-thiadiazol-2-yl)amino]-6-[(2-methylpropyl)(oxan-4-yl)amino]pyridin-3-yl}butanoic acid], the IC50 was 6.31 nM.

With `CC(C)CN(c1ncc(C(C)CC(=O)O)cc1Nc1nc(C2CC2)ns1)C1CCOCC1` (stereo not drawn) [Example 37, 3-{5-[(3-cyclopropyl-1,2,4-thiadiazol-5-yl)amino]-6-[(2-methylpropyl)(oxan-4-yl)amino]pyridin-3-yl}butanoic acid], the IC50 was 20 nM.

For `CC(C)CN(c1ncc([C@H](C)CC(=O)O)cc1Nc1nnc(C2CC2)s1)C1CCOCC1` [Example 38, (3R)-3-{5-[(5-cyclopropyl-1,3,4-thiadiazol-2-yl)amino]-6-[(2-methylpropyl)(oxan-4-yl)amino]pyridin-3-yl}butanoic acid], the IC50 was 20 nM.

`CC(C)CN(c1ncc([C@H](C)CC(=O)O)cc1Nc1nc(Cl)ns1)C1CCOCC1` [Example 39, (3R)-3-{5-[(3-chloro-1,2,4-thiadiazol-5-yl)amino]-6-[(2-methylpropyl)(oxan-4-yl)amino]pyridin-3-yl}butanoic acid]: the IC50 is 12.6 nM.

For `CC(C)CN(CC(C)C)c1ncc([C@H](C)CC(=O)O)cc1Nc1nc(C(F)(F)F)ns1` [Example 40, (3R)-3-{6-[bis(2-methylpropyl)amino]-5-{[3-(trifluoromethyl)-1,2,4-thiadiazol-5-yl]amino}pyridin-3-yl}butanoic acid], the IC50 was 158 nM.

Turning to `CC(C)CN(c1ncc([C@H](C)CC(=O)O)cc1Nc1nc(C2CC2)ns1)C1CCOCC1` [Example 41, (3R)-3-{5-[(3-cyclopropyl-1,2,4-thiadiazol-5-yl)amino]-6-[(2-methylpropyl)(oxan-4-yl)amino]pyridin-3-yl}butanoic acid], the IC50 was 20 nM.

Take `CC(C)CN(c1ncc([C@H](C)CC(=O)O)cc1Nc1n[nH]c(C(F)(F)F)n1)C1CCOCC1` [Example 42, (3R)-3-{6-[(2-methylpropyl)(oxan-4-yl)amino]-5-{[5-(trifluoromethyl)-1H-1,2,4-triazol-3-yl]amino}pyridin-3-yl}butanoic acid]: the IC50 is 158 nM.

With `CC(C)CN(c1ncc([C@H](C)CC(=O)O)cc1Nc1n[nH]c(C#N)n1)C1CCOCC1` [Example 43, (3R)-3-{5-[(5-cyano-1H-1,2,4-triazol-3-yl)amino]-6-[(2-methylpropyl)(oxan-4-yl)amino]pyridin-3-yl}butanoic acid], the IC50 was 3160 nM.

`CC(C)CN(c1ncc([C@H](C)CC(=O)O)cc1Nc1n[nH]c(C(N)=O)n1)C1CCOCC1` [Example 44, (3R)-3-{5-[(5-carbamoyl-1H-1,2,4-triazol-3-yl)amino]-6-[(2-methylpropyl)(oxan-4-yl)amino]pyridin-3-yl}butanoic acid]: the IC50 was 6310 nM.

On to `Cc1nnc(Nc2cc([C@H](C)CC(=O)O)cnc2N(CC(C)C)C2CCCCC2)s1` [Example 45, (3R)-3-{6-[cyclohexyl(2-methylpropyl)amino]-5-[(5-methyl-1,3,4-thiadiazol-2-yl)amino]pyridin-3-yl}butanoic acid], for which the IC50 was 15.8 nM.

With `COC1CCC(N(CC(C)C)c2ncc(C(C)CC(=O)O)cc2Nc2nc(Cl)ns2)CC1` (stereo not drawn) [Example 46, (3RS)-3-{5-[(3-chloro-1,2,4-thiadiazol-5-yl)amino]-6-[(2-methylpropyl)[(1rs&,4rs&)-4-methoxycyclohexyl]amino]pyridin-3-yl}butanoic acid], the IC50 was 12.6 nM.

Regarding `COCc1ccc(Nc2cc(C(C)CC(=O)O)cnc2N(CC(C)C)C2CCC(OC)CC2)nc1` (stereo not drawn) [Example 47, (3RS)-3-(5-{[5-(methoxymethyl)pyridin-2-yl]amino}-6-[(2-methylpropyl)[(1rs&,4rs&)-4-methoxycyclohexyl]amino]pyridin-3-yl)butanoic acid], the IC50 was 251 nM.

As to `CC(C)CN(c1ncc([C@H](C)CC(=O)O)cc1Nc1nc(C(F)(F)F)c[nH]1)C1CCOCC1` [Example 48, (3R)-3-{6-[(2-methylpropyl)(oxan-4-yl)amino]-5-{[4-(trifluoromethyl)-1H-imidazol-2-yl]amino}pyridin-3-yl}butanoic acid], the IC50 is 200 nM.

Consider `COCc1nnc(Nc2cc([C@H](C)CC(=O)O)cnc2N(CC(C)C)C2CCOCC2)s1` [Example 49, (3R)-3-(5-{[5-(methoxymethyl)-1,3,4-thiadiazol-2-yl]amino}-6-[(2-methylpropyl)(oxan-4-yl)amino]pyridin-3-yl)butanoic acid], for which the IC50 is 794 nM.
